As a reminder, the mass density is mass per unit of volume.

The data set is described as follows: xn = mol fraction of the nth substance listed. Particulars: 298.15 K, 100 kPa.

Some of these densities may be calculated back from excess volumes.

As for `CCCCCCCCCCCCCC[P+](CCCCCC)(CCCCCC)CCCCCC.[Cl-]` + CCC(C)=O, the mass density by setting is: (x2 = 0.198) 887.1 kg/m3; (x2 = 0.2994) 885.4 kg/m3; (x2 = 0.3986) 883.3 kg/m3; (x2 = 0.4996) 880.3 kg/m3; (x2 = 0.5997) 876.1 kg/m3; (x2 = 0.7992) 860.1 kg/m3. Moreover, the mass density (x2 = 0.9001) is given as 842 kg/m3 and the mass density (x2 = 0.95) was found to be 826.3 kg/m3.

As to `CC(=O)C(C)C` + CCCCCCCCCCCCCC[P+](CCCCCC)(CCCCCC)CCCCCC.[Cl-], the mass density (x1 = 0.0502) is given as 888.8 kg/m3; the mass density (x1 = 0.1995) is listed as 886.4 kg/m3; the mass density (x1 = 0.2994) amounted to 884.1 kg/m3; the mass density (x1 = 0.4005) was found to be 881.2 kg/m3; the mass density (x1 = 0.5005) came to 877.4 kg/m3; the mass density (x1 = 0.8) is given as 854.5 kg/m3. For the setting “x1 = 0.95”, this molecule gave a mass density of 821.6 kg/m3.

The record behind these values is a compilation of properties of binary mixtures (doi:10.1007/s11814-016-0233-0).
